Measured values published in US11130781B2, “Antimicrobial peptides and their use” (UNIVERSITEIT UTRECHT HOLDING B.V., priority 2017, dated 2021).
Not every detail of the peptide structures is certain; ends, links or a residue may be inferred. Some compounds share one range, which may span the group rather than tell each member. Where no end group is shown, it is not given here.

Tested on: Dolosigranulum Pigrum
Assay: Killing assay against a variety of bacteria
Assay type: cell-based
Conditions: DMEM+1% FCS; 3 h; concentration range giving no colonies

| Substance | Killing efficacy Dolosigranulum Pigrum |
| --- | --- |
| RRWVQRWIRRWRPKRIVQRIKDFLRNLV-NH2 [SEQ ID NO: 11] | ++++ (0-2 μM) |
| RRWVQRWIRRWRKVAAARRWVQRWIRRWRPKV-NH2 [SEQ ID NO: 13] | ++++ (0-2 μM) |

Tested on: Burkholderia cenocepacia
Assay: Killing assay against a variety of bacteria
Assay type: cell-based
Conditions: DMEM+1% FCS; 3 h; concentration range giving no colonies

| Substance | Killing efficacy Burkholderia cenocepacia |
| --- | --- |
| RRWVQRWIRRWRPKRIVQRIKDFLRNLV-NH2 [SEQ ID NO: 11] | +++ (2-5 μM) |
| RRWVQRWIRRWRKVAAARRWVQRWIRRWRPKV-NH2 [SEQ ID NO: 13] | ++++ (0-2 μM) |

Tested on: Aspergillus fumigatus
Assay: Antifungal activity, metabolic activity (resazurin) of fungal spores
Conditions: Aspergillus fumigatus spores; peptide dilutions 2-5 μM; resazurin conversion

| Substance | Antifungal activity (reduction in metabolic activity of fungal spores) |
| --- | --- |
| APKAMRWVQRWIRRWRPKLQKKGI-NH2 [SEQ ID NO: 26] | + (0-25% reduction in metabolic activity) |
| RRWVQRWIRRWRPKVAAARRWV-NH2 [SEQ ID NO: 10] | + (0-25% reduction in metabolic activity) |
| RFGRFLRKIRRFRPKVTITIQGSARF-NH2 [SEQ ID NO: 2, reference compound] | ++ (25-50%) |
| RRWVQRWIRRWRPKRIVQRIKDFLRNLV-NH2 [SEQ ID NO: 11] | ++ (25-50%) |
| RRWVQRWIRRWRPWV-NH2 [SEQ ID NO: 6, RRWVQRWIRRWRPWV] | 0 |
| APKAMRRWVQRWIRRWRPRV-NH2 [SEQ ID NO: 17] | + (0-25% reduction in metabolic activity) |
| RRWVQRWIRRWRKVAAARRWVQRWIRRWRPKV-NH2 [SEQ ID NO: 13] | ++++ (75-100%) |

Tested on: Staphylococcus aureus
Assay: Killing assay (colony count)
Conditions: Bronchial Epithelial Cell Medium; peptide 5 μM; 3 h

| Substance | Antibacterial activity Staphylococcus aureus BEPC |
| --- | --- |
| APKAMRWVQRWIRRWRPKLQKKGI-NH2 [SEQ ID NO: 26] | ++++ |
| RRWVQRWIRRWRPKVAAARRWV-NH2 [SEQ ID NO: 10] | ++++ |
| RFGRFLRKIRRFRPKVTITIQGSARF-NH2 [SEQ ID NO: 2, reference compound] | ++++ |
| RRWVQRWIRRWRPKRIVQRIKDFLRNLV-NH2 [SEQ ID NO: 11] | ++++ |
| RRWVQRWIRRWRPWV-NH2 [SEQ ID NO: 6, RRWVQRWIRRWRPWV] | ++++ |
| APKAMRRWVQRWIRRWRPRV-NH2 [SEQ ID NO: 17] | ++++ |
| RRWVQRWIRRWRKVAAARRWVQRWIRRWRPKV-NH2 [SEQ ID NO: 13] | ++++ |

Same assay, conditions: MHB medium; peptide 5 μM; 3 h at 37° C.

| Substance | Killing efficacy, Staphylococcus aureus |
| --- | --- |
| APKAMRWVQRWIRRWRPKLQKKGI-NH2 [SEQ ID NO: 26] | + (0-100 fold reduction in Colony Forming Units (CFU's) after treatment) |
| RRWVQRWIRRWRPKVAAARRWV-NH2 [SEQ ID NO: 10] | ++++ |
| RFGRFLRKIRRFRPKVTITIQGSARF-NH2 [SEQ ID NO: 2, reference compound] | ++++ |
| RRWVQRWIRRWRPKRIVQRIKDFLRNLV-NH2 [SEQ ID NO: 11] | ++++ |
| RRWVQRWIRRWRPWV-NH2 [SEQ ID NO: 6, RRWVQRWIRRWRPWV] | 0 |
| APKAMRRWVQRWIRRWRPRV-NH2 [SEQ ID NO: 17] | ++ (100-1.000 fold) |
| RRWVQRWIRRWRKVAAARRWVQRWIRRWRPKV-NH2 [SEQ ID NO: 13] | ++++ |

Same assay, conditions: MHB+0.9% NaCl pH 6.5; peptide 5 μM; 3 h

| Substance | Antibacterial activity Staphylococcus aureus NaCl 6.5 |
| --- | --- |
| APKAMRWVQRWIRRWRPKLQKKGI-NH2 [SEQ ID NO: 26] | 0 |
| RRWVQRWIRRWRPKVAAARRWV-NH2 [SEQ ID NO: 10] | 0 |
| RFGRFLRKIRRFRPKVTITIQGSARF-NH2 [SEQ ID NO: 2, reference compound] | ++++ |
| RRWVQRWIRRWRPKRIVQRIKDFLRNLV-NH2 [SEQ ID NO: 11] | ++ (100-1.000 fold) |
| RRWVQRWIRRWRPWV-NH2 [SEQ ID NO: 6, RRWVQRWIRRWRPWV] | 0 |
| APKAMRRWVQRWIRRWRPRV-NH2 [SEQ ID NO: 17] | 0 |
| RRWVQRWIRRWRKVAAARRWVQRWIRRWRPKV-NH2 [SEQ ID NO: 13] | ++++ |

Same assay, conditions: MHB+0.9% NaCl pH 7.4; peptide 5 μM; 3 h

| Substance | Antibacterial activity Staphylococcus aureus NaCl 7.4 |
| --- | --- |
| APKAMRWVQRWIRRWRPKLQKKGI-NH2 [SEQ ID NO: 26] | 0 |
| RRWVQRWIRRWRPKVAAARRWV-NH2 [SEQ ID NO: 10] | ++ (100-1.000 fold) |
| RFGRFLRKIRRFRPKVTITIQGSARF-NH2 [SEQ ID NO: 2, reference compound] | ++++ |
| RRWVQRWIRRWRPKRIVQRIKDFLRNLV-NH2 [SEQ ID NO: 11] | +++ (1.000-100.000 fold) |
| RRWVQRWIRRWRPWV-NH2 [SEQ ID NO: 6, RRWVQRWIRRWRPWV] | 0 |
| APKAMRRWVQRWIRRWRPRV-NH2 [SEQ ID NO: 17] | 0 |
| RRWVQRWIRRWRKVAAARRWVQRWIRRWRPKV-NH2 [SEQ ID NO: 13] | ++++ |

Tested on: Enterobacter cloacae
Assay: Killing assay against a variety of bacteria
Assay type: cell-based
Conditions: DMEM+1% FCS; 3 h; concentration range giving no colonies

| Substance | Killing efficacy Enterobacter cloacae |
| --- | --- |
| RRWVQRWIRRWRPKRIVQRIKDFLRNLV-NH2 [SEQ ID NO: 11] | ++++ (0-2 μM) |
| RRWVQRWIRRWRKVAAARRWVQRWIRRWRPKV-NH2 [SEQ ID NO: 13] | ++++ (0-2 μM) |

Tested on: Pseudomonas aeruginosa
Assay: Killing assay (colony count)
Conditions: Bronchial Epithelial Cell Medium; peptide 5 μM; 3 h

| Substance | Antibacterial activity Pseudomonas aeruginosa BEPC |
| --- | --- |
| APKAMRWVQRWIRRWRPKLQKKGI-NH2 [SEQ ID NO: 26] | +++ (1.000-100.000 fold) |
| RRWVQRWIRRWRPKVAAARRWV-NH2 [SEQ ID NO: 10] | ++++ |
| RFGRFLRKIRRFRPKVTITIQGSARF-NH2 [SEQ ID NO: 2, reference compound] | ++++ |
| RRWVQRWIRRWRPKRIVQRIKDFLRNLV-NH2 [SEQ ID NO: 11] | ++++ |
| RRWVQRWIRRWRPWV-NH2 [SEQ ID NO: 6, RRWVQRWIRRWRPWV] | ++++ |
| APKAMRRWVQRWIRRWRPRV-NH2 [SEQ ID NO: 17] | ++++ |
| RRWVQRWIRRWRKVAAARRWVQRWIRRWRPKV-NH2 [SEQ ID NO: 13] | ++++ |

Same assay, conditions: MHB medium; peptide 5 μM; 3 h at 37° C.

| Substance | Killing efficacy, Pseudomonas aeruginosa |
| --- | --- |
| APKAMRWVQRWIRRWRPKLQKKGI-NH2 [SEQ ID NO: 26] | ++++ |
| RRWVQRWIRRWRPKVAAARRWV-NH2 [SEQ ID NO: 10] | ++++ |
| RFGRFLRKIRRFRPKVTITIQGSARF-NH2 [SEQ ID NO: 2, reference compound] | ++++ |
| RRWVQRWIRRWRPKRIVQRIKDFLRNLV-NH2 [SEQ ID NO: 11] | ++++ |
| RRWVQRWIRRWRPWV-NH2 [SEQ ID NO: 6, RRWVQRWIRRWRPWV] | ++++ |
| APKAMRRWVQRWIRRWRPRV-NH2 [SEQ ID NO: 17] | ++++ |
| RRWVQRWIRRWRKVAAARRWVQRWIRRWRPKV-NH2 [SEQ ID NO: 13] | ++++ |

Same assay, conditions: MHB+0.9% NaCl pH 6.5; peptide 5 μM; 3 h

| Substance | Antibacterial activity Pseudomonas aeruginosa NaCl 6.5 |
| --- | --- |
| APKAMRWVQRWIRRWRPKLQKKGI-NH2 [SEQ ID NO: 26] | + (0-100 fold reduction in Colony Forming Units(CFU's) after treatment) |
| RRWVQRWIRRWRPKVAAARRWV-NH2 [SEQ ID NO: 10] | ++ (100-1.000 fold) |
| RFGRFLRKIRRFRPKVTITIQGSARF-NH2 [SEQ ID NO: 2, reference compound] | ++++ |
| RRWVQRWIRRWRPKRIVQRIKDFLRNLV-NH2 [SEQ ID NO: 11] | ++ (100-1.000 fold) |
| RRWVQRWIRRWRPWV-NH2 [SEQ ID NO: 6, RRWVQRWIRRWRPWV] | 0 |
| APKAMRRWVQRWIRRWRPRV-NH2 [SEQ ID NO: 17] | + (0-100 fold reduction in Colony Forming Units(CFU's) after treatment) |
| RRWVQRWIRRWRKVAAARRWVQRWIRRWRPKV-NH2 [SEQ ID NO: 13] | ++++ |

Same assay, conditions: MHB+0.9% NaCl pH 7.4; peptide 5 μM; 3 h

| Substance | Antibacterial activity Pseudomonas aeruginosa NaCl 7.4 |
| --- | --- |
| APKAMRWVQRWIRRWRPKLQKKGI-NH2 [SEQ ID NO: 26] | + (0-100 fold reduction in Colony Forming Units(CFU's) after treatment) |
| RRWVQRWIRRWRPKVAAARRWV-NH2 [SEQ ID NO: 10] | ++++ |
| RFGRFLRKIRRFRPKVTITIQGSARF-NH2 [SEQ ID NO: 2, reference compound] | ++++ |
| RRWVQRWIRRWRPKRIVQRIKDFLRNLV-NH2 [SEQ ID NO: 11] | ++++ |
| RRWVQRWIRRWRPWV-NH2 [SEQ ID NO: 6, RRWVQRWIRRWRPWV] | ++ (100-1.000 fold) |
| APKAMRRWVQRWIRRWRPRV-NH2 [SEQ ID NO: 17] | +++ (1.000-100.000 fold) |
| RRWVQRWIRRWRKVAAARRWVQRWIRRWRPKV-NH2 [SEQ ID NO: 13] | ++++ |

Tested on: Moraxella nonliquefaciens
Assay: Killing assay against a variety of bacteria
Assay type: cell-based
Conditions: DMEM+1% FCS; 3 h; concentration range giving no colonies

| Substance | Killing efficacy Moraxella nonliquefaciens |
| --- | --- |
| RRWVQRWIRRWRPKRIVQRIKDFLRNLV-NH2 [SEQ ID NO: 11] | ++++ (0-2 μM) |
| RRWVQRWIRRWRKVAAARRWVQRWIRRWRPKV-NH2 [SEQ ID NO: 13] | ++++ (0-2 μM) |
